# According to the supplement of paper PMC12217912:
# The list shows a part of the results. Sequences were assembled here from the parent chain. Inactive controls read about 0.05.
# B1: TEV protease; numbered along this chain (parent)
# chain: MGESLFKGPRDYNPISSSICHLTNESDGHTTSLYGIGFGPFIITNKHLFRRNNGTLVVQSLHGVFKVKDTTTLQQHLVDGRDMIIIRMPKDFPPFPQKLKFREPQREERICLVTTNFQTKSMSSMVSDTSCTFPSGDGIFWKHWIQTKDGQCGSPLVSTRDGFIVGIHSASNFTNTNNYFTSVPKNFMELLTNQEAQQWVSGWRLNADSVLWGGHKVFMVKPEEPFQPVKEATQL
# Variants of: B1
# Experiment: raw area under fraction-flipped curve 0-4 h after induction (AUC4h, not background-subtracted), DNA-recorder readout of cleavage of the substrate (dimensionless); higher = more cleavage of the substrate by the protease variant
# Details: temperature: 34 °C; time window: 0-4 h after rhamnose induction
# Experimental: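 In vivo DNA recorder in E. coli TOP10(DE3) ΔrhaA at 34 °C. Each TEVp single-site mutant (parent TEVp 0) is paired with a single-site variant of the 7-mer TEVs (canonical ENLYFQ|S). The substrate sits between flexible linkers in a Bxb1-sfGFP-TEVs-SsrA fusion, so cleavage stabilises Bxb1 and speeds flipping of a recombination array, read by NGS. The value is the raw area under the fraction-flipped curve over 0-4 h after rhamnose induction (AUC4h), with ≥20 reads per time point. It is not background-subtracted; inactive controls average about 0.047.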
# 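Also: Bxb1 expression induced with 0.2% (w/v) L-rhamnose at OD600 near 0.5, cultures sampled hourly, flipped fraction per protease–substrate barcode pair counted by paired-end Illumina sequencing.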
Variant,area with substrate ENAYFQS,area with substrate ENCYFQS,area with substrate ENDYFQS,area with substrate ENEYFQS,area with substrate ENFYFQS,area with substrate ENHYFQS,area with substrate ENIYFQS,area with substrate ENKYFQS,area with substrate ENNYFQS,area with substrate ENPYFQS,area with substrate ENQYFQS,area with substrate ENRYFQS,area with substrate ENVYFQS,area with substrate ENYYFQS,area with substrate ENGYFQS,area with substrate ENSYFQS,area with substrate ENTYFQS,area with substrate ENMYFQS,area with substrate ENWYFQS
MGESLFKGPRDYNPISSSICHLTNESDGHNTSLYGIGFGPFIITNKHLFRRNNGTLVVQSLHGVFKVKDTTTLQQHLVDGRDMIIIRMPKDFPPFPQKLKFREPQREERICLVTTNFQTKSMSSMVSDTSCTFPSGDGIFWKHWIQTKDGQCGSPLVSTRDGFIVGIHSASNFTNTNNYFTSVPKNFMELLTNQEAQQWVSGWRLNADSVLWGGHKVFMVKPEEPFQPVKEATQL [T30N],0.0546,0.0759,0.0526,0.0545,0.059,0.0483,0.103,0.0637,0.0616,0.0581,0.0598,0.0541,0.037,0.0505,,,,,
MGESLFKGPRDYNPISSSICHLTNESDGSTTSLYGIGFGPFIITNKHLFRRNNGTLVVQSLHGVFKVKDTTTLQQHLVDGRDMIIIRMPKDFPPFPQKLKFREPQREERICLVTTNFQTKSMSSMVSDTSCTFPSGDGIFWKHWIQTKDGQCGSPLVSTRDGFIVGIHSASNFTNTNNYFTSVPKNFMELLTNQEAQQWVSGWRLNADSVLWGGHKVFMVKPEEPFQPVKEATQL [H29S],0.0562,0.0655,0.0632,0.0239,0.0588,0.0589,,0.0721,0.0684,,0.0646,,0.08,0.0584,0.07,0.0557,0.0723,,
MGESLFKGPRDYNPISSSICHLTNESDGKTTSLYGIGFGPFIITNKHLFRRNNGTLVVQSLHGVFKVKDTTTLQQHLVDGRDMIIIRMPKDFPPFPQKLKFREPQREERICLVTTNFQTKSMSSMVSDTSCTFPSGDGIFWKHWIQTKDGQCGSPLVSTRDGFIVGIHSASNFTNTNNYFTSVPKNFMELLTNQEAQQWVSGWRLNADSVLWGGHKVFMVKPEEPFQPVKEATQL [H29K],0.0648,,,0.071,,,,,,,0.0415,0.0641,,,0.0656,,,0.0645,
MGESLFKGPRDYNPISSSICHLTNESDGVTTSLYGIGFGPFIITNKHLFRRNNGTLVVQSLHGVFKVKDTTTLQQHLVDGRDMIIIRMPKDFPPFPQKLKFREPQREERICLVTTNFQTKSMSSMVSDTSCTFPSGDGIFWKHWIQTKDGQCGSPLVSTRDGFIVGIHSASNFTNTNNYFTSVPKNFMELLTNQEAQQWVSGWRLNADSVLWGGHKVFMVKPEEPFQPVKEATQL [H29V],0.0585,,0.0687,0.0857,,,0.121,,0.0655,0.049,0.0543,0.0473,0.0766,,,0.0588,0.0715,0.059,
MGESLFKGPRDYNPISSSICRLTNESDGHTTSLYGIGFGPFIITNKHLFRRNNGTLVVQSLHGVFKVKDTTTLQQHLVDGRDMIIIRMPKDFPPFPQKLKFREPQREERICLVTTNFQTKSMSSMVSDTSCTFPSGDGIFWKHWIQTKDGQCGSPLVSTRDGFIVGIHSASNFTNTNNYFTSVPKNFMELLTNQEAQQWVSGWRLNADSVLWGGHKVFMVKPEEPFQPVKEATQL [H21R],0.0494,0.0682,0.0599,0.061,,0.0568,0.109,0.0571,0.0708,0.0477,0.0609,0.0639,0.0718,0.0345,,0.0364,0.053,0.069,0.0561
